Measurements reported in PubChem BioAssay AID624417 (National Center for Advancing Translational Sciences (NCATS), 2012).
Out of some 410,000 compounds screened, about 6,400 (1.6%) were called active. Inconclusive results, whose numbers are uncertain, are shown with a selection of clear calls. Calls come from the whole dose curve; as a rule, active = well fitted inhibition curve with a large enough effect; inconclusive = small, poorly fitted or top-dose-only effect; inactive = no such curve, though single readings can be large or run the other way. No potency is given beside an inconclusive call; the fits are too rough.

target: Glucagon-like peptide 1 receptor (Homo sapiens) (UniProt P43220); test: qHTS of GLP-1 Receptor Inverse Agonists (Inhibition Mode); conditions: HEK293 GLP-1R CRE-luciferase, luminescence, 24 h, GLP-1R form is constitutively active; series mostly up to 38.3 µM; note: nearly all actives have a fitted effect of over 55% in size
Text: The overall goal of this project was to develop a novel assay for discovering small molecule ligands for class B1 G protein-coupled receptors (GPCRs). Very few agonists (or inverse agonists in inhibition mode) with generally weak activity for this entire group of physiologically important receptors are known to date. To establish proof-of-principle that this critical bottleneck can be overcome with a suitable screening approach, our studies focused on the class B1 receptor for glucagon-like peptide-1 (GLP-1R), a potential therapeutic target for diabetes and neurodegenerative disease. The assay was developed using a cell-based functional readout. Toward this goal, stably transfected HEK293 cell clones were established that co-express (i) a cAMP-responsive luciferase reporter gene, and (ii) constitutively active GLP-1R that upon ligand interaction inhibit (inverse agonists) the luciferase activity. In addition, two control cell lines were developed: (i) one that express only the cAMP-responsive reporter gene to enable initial exclusion of GLP-1R independent effects of candidate probes; and (ii) one with the reported gene cloned with another constitutively active orphan receptor GPR119 to enable exclusion of GLP-1R independent inhibitor effects of candidate inverse agonists. To that end, this assay was optimized for 1536-well format and screened against the MLSMR. […] NIH Molecular Libraries Probe Production Network [MLPCN] NIH Chemical Genomics Center [NCGC] Grant: NS064851 PI Name: Martin Beinborn, Tufts Medical Center
Six ul of cell suspension (200 cells/uL in DMEM + 10% Nu serum + 1% pen-strep) is dispensed in a white solid 1536-well plate. The plates are incubated for 12 hours at 37 deg C at 5% CO2 followed by addition of 23 nL compounds. After 24 hr incubation at 37 deg C and 5% CO2, 3 uL of luciferase assay detection reagent is added. A luminescence read is obtained on the PerkinElmer Viewlux after 12 min incubation at room temperature.
Potency is the fitted concentration of half-maximal effect; tags give direction and shape of the fitted curve.

Sequence of UniProt P43220 (P43220 whole entry, looked up): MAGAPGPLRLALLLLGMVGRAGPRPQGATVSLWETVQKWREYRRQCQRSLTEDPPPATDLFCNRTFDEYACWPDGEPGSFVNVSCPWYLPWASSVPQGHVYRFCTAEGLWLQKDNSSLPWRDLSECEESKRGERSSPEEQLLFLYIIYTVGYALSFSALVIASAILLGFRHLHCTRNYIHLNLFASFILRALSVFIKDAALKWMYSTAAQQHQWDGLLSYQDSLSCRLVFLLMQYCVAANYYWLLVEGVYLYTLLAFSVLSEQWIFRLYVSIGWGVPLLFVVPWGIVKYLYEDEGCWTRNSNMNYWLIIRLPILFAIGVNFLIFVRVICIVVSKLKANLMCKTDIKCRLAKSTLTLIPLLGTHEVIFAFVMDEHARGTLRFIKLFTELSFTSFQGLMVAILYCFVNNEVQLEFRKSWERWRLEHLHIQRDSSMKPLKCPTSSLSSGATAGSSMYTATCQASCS

SMILES | Potency
Cc1ccc(S(=O)(=O)CCC(=O)c2cccc([N+](=O)[O-])c2)cc1 | inconclusive [inhibitor, single point]
Cc1noc(C)c1CSCC(=O)Nc1cc(C(F)(F)F)ccc1N1CCCCC1 | inconclusive [inhibitor, single point]
COc1ccc(-c2noc3c2-c2nc(C(C)C)sc2CC3)cc1 | inconclusive [inhibitor, partial curve, poor fit]
Cc1ccc(NNC(=O)CCc2ccccc2)c(C)c1 | inconclusive [inhibitor, full curve, poor fit]
COc1ccc(NC(=S)NC(=NS(=O)(=O)c2ccc(Cl)cc2)c2ccccc2)cc1 | inconclusive [inhibitor, single point]
Cc1c(C(=O)NCCc2ccc(Cl)cc2)sc2nc3n(c(=O)c12)CCCC3 | inactive
CCOC(=O)N1CCN(C(=O)c2ccc3c(c2)N(Cc2ccc(F)cc2)CCS3)CC1 | inconclusive [inhibitor, single point]
Cc1ccc2c(c1)N(Cc1cccc(Cl)c1)C(=O)c1cccnc1O2 | inconclusive [inhibitor, single point]
CCc1ccccc1N(C1=NCCCS1)S(=O)(=O)c1ccc(C(C)(C)C)cc1 | inconclusive [inhibitor, partial curve, poor fit]
O=C(Nc1ccc(F)cc1)C1(S(=O)(=O)c2ccc(Cl)cc2)CC1 | inconclusive [inhibitor, partial curve, poor fit]
Cc1ccc(S(=O)(=O)N(C)c2ccc(N)cc2)cc1 | inactive
COc1cc([N+](=O)[O-])cc(/C=N/NC(=O)C(O)(c2ccccc2)c2ccccc2)c1O | inconclusive [inhibitor, partial curve, poor fit]
C=CCNc1ccc(F)c(F)c1N1CCCCCC1=O | inconclusive [inhibitor, single point]
CCCc1ccc(C(C)NC(=S)NCc2ccc(F)cc2)cc1 (centres undefined) | inconclusive [inhibitor, full curve, poor fit]
O=C(Nc1c(C(=O)N2CCN(c3ccccc3)CC2)oc2ccccc12)c1ccco1 | inactive
CC(C)C1C(=O)N(Cc2cn(CCC3OCCO3)nn2)CCS(=O)(=O)N1Cc1ccc(-c2ccccc2C(F)(F)F)cc1 (centres undefined) | inconclusive [inhibitor, single point]
O=C(Nc1ccc(C(=O)N2CCCC2)cc1)C1CCC1 | inactive
CC(Sc1ccc(S(=O)(=O)N2CCN(C)CC2)cn1)C(=O)NC1CCCC(C)C1C (centres undefined) | inactive
Cc1ccc(-c2c(C)sc(NC(=O)C3C4CCC(O4)C3C(=O)O)c2C(=O)OC(C)C)cc1 (centres undefined) | inconclusive [inhibitor, single point]
OC(CNCc1ccc(Cl)cc1)COc1ccccc1 (centres undefined) | inconclusive [inhibitor, single point]

SMILES | Potency
Cc1ccc(C2=Nc3ccccc3N(CC(=O)NCc3ccccc3Cl)C(=O)C2)cc1C | inconclusive [inhibitor, single point]
CCN(CC(=O)Nc1ccc(NC(C)=O)cc1)C(=O)COc1ccccc1Cc1ccccc1 | inconclusive [inhibitor, partial curve, poor fit]
O=C(NCCc1ccc(Cl)cc1)c1ccc(S(=O)(=O)N2CCCC2)cc1 | inconclusive [inhibitor, single point]
CCOC(=O)CN(C(=O)Cn1nnc(-c2ccc(OC)cc2)n1)C(C(=O)NC1CCCC1)c1ccc(F)cc1 (centres undefined) | inconclusive [inhibitor, single point]
O=[N+]([O-])c1cccc(CSC2=NCCN2S(=O)(=O)c2ccccc2)c1 | inconclusive [inhibitor, single point]
CCN(CC)c1ccc(NC(=O)CCc2nnc3ccc(N4CCCC4)nn23)c(C)c1 | inconclusive [inhibitor, partial curve, poor fit]
CC1(C)Cc2cccc(OCC(=O)NCc3ccccc3)c2O1 | inconclusive [inhibitor, partial curve, poor fit]
Oc1ccc(NC(=S)N=Nc2c(O)[nH]c3ccccc23)cc1 | inactive
CCOC(=O)CC1(C)Oc2cc(Cl)ccc2N1S(=O)(=O)c1ccc(C)cc1 (centres undefined) | inconclusive [inhibitor, single point]
Cc1ccc(S(=O)(=O)N(CC(=O)NCCSc2ccccn2)c2cc(C)cc(C)c2)cc1 | inconclusive [inhibitor, single point]
Cc1ccc(CC(=O)Nc2ccc(OC(F)F)c(Cl)c2)cc1C | inconclusive [inhibitor, partial curve, poor fit]
C=C1C(=O)[C@]23C[C@H]1CCC2[C@@]1(C)C(C[C@@H]3O)[C@](C)(C(=O)OC)CC[C@@H]1O (some centres undefined) | inconclusive [inhibitor, partial curve, poor fit]
COC(=O)Cc1ccc(OCC(=O)Nc2ccc(OC(F)(F)F)cc2)cc1 | inconclusive [inhibitor, single point]
CC(C)c1ccc(S(=O)(=O)N2CCN(C(=O)C3CCCCC3)CC2)cc1 | inconclusive [inhibitor, partial curve]
Cc1cc(OCC(O)CN2CCc3ccccc3C2)cc(C(C)C)c1 (centres undefined) | inconclusive [inhibitor, single point]
CCOC(=O)C1=CCN(S(=O)(=O)c2cccc(Cl)c2)C1c1cccc(F)c1 (centres undefined) | inconclusive [inhibitor, single point]
C/C(=N\Nc1nc2ccccc2[nH]1)c1cc2ccccc2o1 | inconclusive [inhibitor, partial curve, poor fit]
COc1cc2c(cc1OC)C(COc1cc(C)cc(C)c1)N(C(=O)COc1ccccc1)CC2 (centres undefined) | inconclusive [inhibitor, single point]
COc1ccc2[nH]c3c(NCCC4=CCCCC4)ncnc3c2c1 | active: 5.01 µM
